Six molecules from patent US11939397B2, “ENTPD2 antibodies, combination therapies, and methods of using the antibodies and combination therapies” (Novartis AG, priority 2018, dated 2024) can be followed below.

Positions count from the first letter of the chain named.

The labels stand for the following.
T1: human ENTPD2 (Homo sapiens, UniProt Q9Y5L3)
T1 construct: residues 29-462 of human or cyno ENTPD2 were cloned into expression vector; GP67 signal peptide (N); made in house; host or cells: High Five (Trichoplusia ni) insect cells, baculovirus
T1 sequence (Q9Y5L3 29-462): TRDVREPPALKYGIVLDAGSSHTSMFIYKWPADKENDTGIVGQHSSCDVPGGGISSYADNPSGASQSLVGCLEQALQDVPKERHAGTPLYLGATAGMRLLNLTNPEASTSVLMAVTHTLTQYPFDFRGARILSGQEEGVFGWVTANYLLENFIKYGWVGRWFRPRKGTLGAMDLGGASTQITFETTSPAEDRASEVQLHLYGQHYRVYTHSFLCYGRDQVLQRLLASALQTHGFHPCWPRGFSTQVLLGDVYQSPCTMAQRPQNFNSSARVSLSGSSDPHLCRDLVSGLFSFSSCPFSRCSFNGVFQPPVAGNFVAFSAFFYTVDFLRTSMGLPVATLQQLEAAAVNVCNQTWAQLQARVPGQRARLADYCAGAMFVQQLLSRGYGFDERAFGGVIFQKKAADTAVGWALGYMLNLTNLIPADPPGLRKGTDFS

T2: mouse ENTPD2 (Mus musculus, UniProt O55026)
T2 construct: residues 29-462 of mouse or rat ENTPD2 (the extracellular domain); mouse IgK signal peptide (N); made in house; host or cells: FreeStyle 293-F cells, transient
T2 sequence (O55026 29-462): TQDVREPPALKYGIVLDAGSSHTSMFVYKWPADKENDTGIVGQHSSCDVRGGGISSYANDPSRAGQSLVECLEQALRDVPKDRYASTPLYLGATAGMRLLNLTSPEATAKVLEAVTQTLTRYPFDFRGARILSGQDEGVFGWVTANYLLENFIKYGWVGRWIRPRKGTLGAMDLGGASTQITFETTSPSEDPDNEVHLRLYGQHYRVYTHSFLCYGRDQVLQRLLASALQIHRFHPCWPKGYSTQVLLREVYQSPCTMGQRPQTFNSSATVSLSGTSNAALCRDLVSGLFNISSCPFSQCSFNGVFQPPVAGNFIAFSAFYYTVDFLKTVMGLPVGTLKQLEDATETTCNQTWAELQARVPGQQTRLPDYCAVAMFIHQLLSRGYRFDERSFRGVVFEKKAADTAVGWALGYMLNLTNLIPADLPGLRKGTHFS

B1: mAb7: anti-human ENTPD2 antibody generated by humanization of mAb17 (antibody)
heavy: QVQLVQSGAEVVKPGASVKISCKASGYTFTDYNMDWVKQAPGQRLEWIGDINPKYDISTYNQQFKGKATITVDKSASTAYMELSSLRSEDTAVYYCARRGFFLYYGINYYYFDVWGQGTLVTVSSASTKGPSVFPLAPSSKSTSGGTAALGCLVKDYFPEPVTVSWNSGALTSGVHTFPAVLQSSGLYSLSSVVTVPSSSLGTQTYICNVNHKPSNTKVDKRV[human IgG1 Fc skipped]
light: EIVLTQSPATLSASPGEEITLSCSASSSVSYIHWYQQKPGQAPRLLIYSTSNLASGIPARFSGSGSGTFYTLTISSVEPEDAAVYYCHQWSSYPWTFGGGTKLEIKRTVAAPSVFIFPPSDEQLKSGTASVVCLLNNFYPREAKVQWKVDNALQSGNSQESVTEQDSKDSTYSLSSTLTLSKADYEKHKVYACEVTHQGLSSPVTKSFNRGEC
B2: mAb3: anti-human ENTPD2 antibody generated by humanization of mAb17 (antibody)
heavy: B1 heavy with K74T
light: B1 light with E18R
B3: mAb2: anti-human ENTPD2 antibody generated by humanization of mAb17 (antibody)
heavy: B1 heavy
light: B1 light with E18R
B4: mAb9: anti-human ENTPD2 antibody of Table 1; weak affinity to mouse ENTPD2 (antibody)
heavy: QVQLVQSGAEVKKPGSSVKVSCKASGGTFDSYAVSWVRQAPGQGLEWMGRIVPWLGHTQYAQKFQGRVTITADESTSTAYMELSSLRSEDTAVYYCARESPGYRYSFDVWDQGTLVTVSSASTKGPSVFPLAPSSKSTSGGTAALGCLVKDYFPEPVTVSWNSGALTSGVHTFPAVLQSSGLYSLSSVVTVPSSSLGTQTYICNVNHKPSNTKVDKRV[human IgG1 Fc skipped]
light: SYELTQPLSVSVALGQTARITCSGDAIGEKYVYWYQQKPGQAPVLVIYDDNNRPSGIPERFSGSNSGNTATLTISRAQAGDEADYYCASYDLQQARWVFGGGTKLTVLGQPKAAPSVTLFPPSSEELQANKATLVCLISDFYPGAVTVAWKADSSPVKAGVETTTPSKQSNNKYAASSYLSLTPEQWKSHRSYSCQVTHEGSTVEKTVAPTECS
B5: mAb10: anti-human ENTPD2 antibody of Table 1; weak affinity to mouse ENTPD2 (antibody)
heavy: B4 heavy with H57F, Q59R
light: B4 light
B6: mAb8: anti-human ENTPD2 antibody of Table 1; weak affinity to mouse ENTPD2 (antibody)
heavy: QVQLQQSGPGLVKPSQTLSLTCAISGDSVSSSSAAWNWIRQSPSRGLEWLGRIYYRSKWYNDYAVSVKSRITINPDTSKNQFSLQLNSVTPEDTAVYYCARGSYVTSSYEGFDYWGQGTLVTVSSASTKGPSVFPLAPSSKSTSGGTAALGCLVKDYFPEPVTVSWNSGALTSGVHTFPAVLQSSGLYSLSSVVTVPSSSLGTQTYICNVNHKPSNTKVDKRV[human IgG1 Fc skipped]
light: SYELTQPLSVSVALGQTARITCSGDNLPEKYAYWYQQKPGQAPVLVIYDDNKRPSGIPERFSGSNSGNTATLTISRAQAGDEADYYCQSYGKWGWTWVFGGGTKLTVLGQPKAAPSVTLFPPSSEELQANKATLVCLISDFYPGAVTVAWKADSSPVKAGVETTTPSKQSNNKYAASSYLSLTPEQWKSHRSYSCQVTHEGSTVEKTVAPTECS

The target of the first experiment is T1, human ENTPD2. In words: Biacore SPR affinity to human ENTPD2 ECD. The class given is binding. As to conditions: 25° C. The protocol:
(§1) Biacore™ Screening: Affinity was measured by determining the kinetic rate constants using surface plasmon resonance (SPR) on a Biacore™ T200 or T100 with the T200 sensitivity upgrade instrument (Biacore™, GE Healthcare). Antibodies were captured on CM5 sensor chips (Biacore™, GE Healthcare) prepared with a mouse anti-human IgG Fc antibody (ThermoFisher catalogue #05-4200) amine coupled to the surface. […] ENTPD2 analytes were allowed to associate for 180 s and dissociate for up to 1800 s depending on the off-rate of the antibody at a flow rate of 30 μL/min. The running buffer was PBS pH 7.2 (prepared from a Corning 10× stock, cat #46-013-CM)+0.05% Tween 20. Regeneration was accomplished with 30 s injections of 3 or 4 M MgCl2 to remove all the captured antibody and remaining complex from the surface, after which fresh antibody was captured. The raw data were analyzed using Biacore™ T200 Evaluation Software version 1.0 and fit to a 1:1 binding model, with all parameters set to fit globally except for RI, which was set to fit locally.
For B1, the “Human ENTPD2 ka” value is 210000 M⁻¹ s⁻¹ and the “Human ENTPD2 kd” value came to 0.00019 s⁻¹.
For the molecule B2, the “Human ENTPD2 ka” value was 130000 M⁻¹ s⁻¹ and the “Human ENTPD2 kd” value is 0.00016 s⁻¹.
For B3 the same measures were 110000 M⁻¹ s⁻¹ and 0.00018 s⁻¹.
B4: the “Human ENTPD2 ka” value was found to be 380000 M⁻¹ s⁻¹ and the “Human ENTPD2 kd” value turned out to be 0.0003 s⁻¹.
The like results for B5 were, in that order, 340000 M⁻¹ s⁻¹ and 0.00024 s⁻¹.
The like results for B6 were, in that order, 290000 M⁻¹ s⁻¹ and 0.00094 s⁻¹.

A further experiment concerns cynomologus (cyno) ENTPD2. Kind of experiment: Biacore SPR affinity to cyno ENTPD2 ECD. The class given is binding, cynomolgus monkey. As to conditions: 25° C. Here is the method:
as §1
(SPR reads the build-up and loss of mass on a sensor chip optically.)
In the case of B1, the “Cyno ENTPD2 ka” value stood at 1.2e+06 M⁻¹ s⁻¹ and the “Cyno ENTPD2 kd” value was determined as 0.0012 s⁻¹.
The like results for B2 were, in that order, 450000 M⁻¹ s⁻¹ and 0.00098 s⁻¹.
For B3 the same measures were 430000 M⁻¹ s⁻¹ and 0.0012 s⁻¹.
As to B4, the “Cyno ENTPD2 ka” value worked out at 990000 M⁻¹ s⁻¹ and the “Cyno ENTPD2 kd” value amounted to 0.021 s⁻¹.
For B5 the same measures were 1.2e+06 M⁻¹ s⁻¹ and 0.018 s⁻¹.
B6: the “Cyno ENTPD2 ka” value was 300000 M⁻¹ s⁻¹ and the “Cyno ENTPD2 kd” value turned out to be 0.024 s⁻¹.

The target of a further experiment is T2, mouse ENTPD2. In words: Antibody specificity: binding to mouse ENTPD2.
Conditions: not given
Here is the method:
FACS screening: Specific binding of candidate antibodies to endogenously expressed ENTPD2 was assessed by flow cytometry. Cells were rinsed thoroughly with 1×PBS and treated with Accutase (Millipore #SCR005) to lift from growth plates and resuspended at approximately 1×10^5 cells/90 μL in 1×FACS buffer (2% FBS+0.1% NaN3 in PBS). In a 96-well U-bottom plate, 10 μL of 10× antibody solution in FACS buffer was pre-seeded and 90 μL of cell suspension was added. Cell were incubated for 30 minutes at 4° C., washed 1× with cold PBS and resuspended in 100 μL of 1:500 secondary antibody 1×FACS buffer (Allophycocyanin conjugated F(ab′)2 goat anti-human IgG, Fcγ specific; Jackson Immunoresearch, Cat #109-136-098). After additional incubation for 15 min at 4° C., cells were washed twice with PBS and resuspended in 100 μL of 1×FACS buffer with 4 μg/mL propidium iodide (Life Technologies, Cat #P3566). Geometric mean fluorescence intensity was calculated on live single cells using FlowJo software.
ELISA screening on directly coated antigen: Maxisorp™ 384-well plates (Thermo Nunc) were coated with 2 μg/ml of recombinant ENTPD2 diluted in PBS. After blocking with 2% BSA (bovine serum albumin) in PBS for 1 hr at room temperature, washing plates 3× with TBST (0.05% Tween 20 in TBS, Sigma Cat #T9039), primary antibodies in TBST and 2% BSA were added in a serial dilution and incubated for 1 hr at room temperature. Plates were washed again and bound antibodies were detected by incubation with anti-hFc gamma conjugated to horseradish peroxidase (HRP; Jackson ImmunoResearch, Cat #115-035-098, diluted 1:5000 in 1×TBST+2% BSA) for 1 hr at room temperature followed by washing with TBST and afterwards addition of SureBlue Peroxidase substrate (KPL, #52-00-03) substrate. After 15 min, absorbance at 650 nm was recorded and analyzed in GraphPad Prism6.
as §1
Antibody specificity for mAb1-mAb10 was confirmed. […] Antibodies mAb8, mAb9, and mAb10 show weak affinity to mouse ENTPD2. None of the selected antibodies bind to rat ENTPD2.
In the case of B4, the “affinity / cross-reactivity to mouse ENTPD2” value (from here on “affinity / cross-reactivity”) is reported as “weak affinity”.
In the case of B5, the “affinity / cross-reactivity” value was “weak affinity”.
B6: the “affinity / cross-reactivity” value is “weak affinity”.

Still in this experiment, the particulars now being: SPR, mouse ENTPD2.
Consider B1, for which the “Mouse ENTPD2 BIACore KD” value is recorded as “No binding”.
On the same count and under the same terms, under B2 stands “No binding”.
The same measure, in the same setting: in the case of B3 it was “No binding”; in that of B5, “Weak”.
On the same count and under the same terms, under B6 stands “Weak”.
